Measurements: paper doi:10.1101/2023.02.24.529952 (bioRxiv, 2023)

Target: T1, HCoV-OC43 Nucleocapsid (N) protein (2X-StrepTag tagged) (HCoV-OC43, UniProt P33469 1-448)
T1 construct: also called rN; HCoV-OC43 rN; source: HEK293-FT, transfected, in crude lysate; not shown: 2X-StrepTag, C-terminal, kept
T1 sequence: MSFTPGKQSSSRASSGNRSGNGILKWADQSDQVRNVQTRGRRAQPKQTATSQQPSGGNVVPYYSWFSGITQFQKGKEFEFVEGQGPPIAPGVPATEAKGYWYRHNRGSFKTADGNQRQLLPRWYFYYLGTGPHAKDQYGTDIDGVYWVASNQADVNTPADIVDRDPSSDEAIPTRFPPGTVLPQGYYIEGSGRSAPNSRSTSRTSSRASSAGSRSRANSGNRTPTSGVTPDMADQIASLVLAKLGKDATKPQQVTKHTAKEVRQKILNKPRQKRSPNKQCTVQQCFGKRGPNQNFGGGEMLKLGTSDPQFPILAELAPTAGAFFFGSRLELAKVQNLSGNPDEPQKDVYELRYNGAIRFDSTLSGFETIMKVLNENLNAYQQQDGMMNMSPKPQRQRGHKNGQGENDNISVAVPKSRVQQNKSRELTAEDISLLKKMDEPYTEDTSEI
Experiment: BLI
Settings: one partner purified

B1: CCL20 (ligand)
chain: not shown
notes: recombinant human CCL20; source: bought: PeproTech
**Q.** What does the source list for B1?
**A.** Kd: 1800 nM; koff: 0.017 s⁻¹; kon: 18000 M⁻¹ s⁻¹
